Variants at the background level are over-represented here.
B1: tRNA (parent)
chain: CUCUCGGUAGCCAAGUUGGUUUAAGGCGCAAGACUUUAAUUUAUCACUACGAAAUCUUGAGAUCGGGCGUUCGACUCGCCCCCGGGAGAUUUUUUCCUCGAGCAA

Variants of: B1
Assay: nonsense suppression (GFP-seq) (ratio to wild type); higher = more function; SUP4oc tRNA, yeast GFP reporter sort-seq
Procedure, shortened: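 Nonsense suppression (GFPSEQ) is the median GFP/RFP ratio of each sorting bin, weighted by the variant's estimated share of cells in that bin and expressed relative to the unmutated parent tRNA. Yeast strains carried genome-integrated variants of an ochre-suppressor tRNA from a library with ~3% random mutations, plus a galactose-driven GFP ochre reporter and RFP, and were grown in raffinose/galactose medium containing 80 mg/L adenine. Cells were sorted into GFP/RFP bins, each bin was Illumina-sequenced (phred ≥30), and variants were kept only with ≥100 reads and ≥30 cells.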

Row | Variant | nonsense suppression
1 | U8A A30G A33G | ≤ 0.026
2 | U8A A30G U35G G69A | ≤ 0.026
3 | U8A A30U | 0.0393
4 | U8A A31U U71G | ≤ 0.026
5 | U8A A54U | ≤ 0.026
6 | U8A A54U C56A C72A | ≤ 0.026
7 | U8A A54U U76C A87C | ≤ 0.026
8 | U8A A60C | ≤ 0.026
9 | U8A A60C G73U A87C | ≤ 0.026
10 | U8A A62C | ≤ 0.026
11 | U8A A62C G65A | ≤ 0.026
12 | U8A A62G C68A U71C G86A | ≤ 0.026
13 | U8A A62U | ≤ 0.026
14 | U8A A62U G65C A89U | ≤ 0.026
15 | U8A A74G C80G | ≤ 0.026
16 | U8A A87C | ≤ 0.026
17 | U8A A89U | ≤ 0.026
18 | U8A C11G C81U | ≤ 0.026
19 | U8A C11U A33C | ≤ 0.026
20 | U8A C11U U55A C68G | ≤ 0.026
21 | U8A C12A A54U | ≤ 0.026

Row | Variant | nonsense suppression
22 | U8A C12U A24C G28C | ≤ 0.026
23 | U8A C12U C56G C72A G78U C79G | ≤ 0.026
24 | U8A C12U G26U A33G G59A | ≤ 0.026
25 | U8A C27G G73A U76C G85U | ≤ 0.026
26 | U8A C27U | ≤ 0.026
27 | U8A C27U C34G C56A G85C | ≤ 0.026
28 | U8A C29A A30U U55A G59A | ≤ 0.026
29 | U8A C29G U35A | ≤ 0.026
30 | U8A C29U A33G U57G | ≤ 0.026
31 | U8A C29U U55A | ≤ 0.026
32 | U8A C34A G61U | ≤ 0.026
33 | U8A C34A G86A | ≤ 0.026
34 | U8A C34G | ≤ 0.026
35 | U8A C56G C83G | ≤ 0.026
36 | U8A C68G A74C | ≤ 0.026
37 | U8A C72A | ≤ 0.026
38 | U8A C72U U76G | ≤ 0.026
39 | U8A C77U A89G | ≤ 0.026
40 | U8A C79A | ≤ 0.026
41 | U8A C80A | ≤ 0.026
42 | U8A C80G | ≤ 0.026

Row | Variant | nonsense suppression
43 | U8A C82G C83A | ≤ 0.026
44 | U8A C83A | ≤ 0.026
45 | U8A G10A G18A G66A | ≤ 0.026
46 | U8A G10A G65A G85U | ≤ 0.026
47 | U8A G10C | ≤ 0.026
48 | U8A G15C G67A | ≤ 0.026
49 | U8A G25A | ≤ 0.026
50 | U8A G26C A31U U55A U71A | ≤ 0.026
51 | U8A G26C C81U | ≤ 0.026
52 | U8A G32A | ≤ 0.026
53 | U8A G32A U71C | ≤ 0.026
54 | U8A G32C G61C A62C U63A G78A | ≤ 0.026
55 | U8A G32U | ≤ 0.026
56 | U8A G59A U71A | ≤ 0.026
57 | U8A G61A | ≤ 0.026
58 | U8A G65A | ≤ 0.026
59 | U8A G65C | ≤ 0.026
60 | U8A G67A | ≤ 0.026
61 | U8A G67A C77U | ≤ 0.026
62 | U8A G67U C77G G78U | ≤ 0.026
63 | U8A G67U C79G | ≤ 0.026

Row | Variant | nonsense suppression
64 | U8A G69A | ≤ 0.026
65 | U8A G69C | ≤ 0.026
66 | U8A G69U | ≤ 0.026
67 | U8A G88C | ≤ 0.026
68 | U8A U16C A23U C82A | ≤ 0.026
69 | U8A U16G C34A | ≤ 0.026
70 | U8A U16G G61U | ≤ 0.026
71 | U8A U17A G61A A74G G85A | ≤ 0.026
72 | U8A U17A G61A G85A | ≤ 0.026
73 | U8A U17A U71C | ≤ 0.026
74 | U8A U17C U20G | ≤ 0.026
75 | U8A U17G | ≤ 0.026
76 | U8A U17G A30G G59U U71A U76C | ≤ 0.026
77 | U8A U20A A23G | ≤ 0.026
78 | U8A U20C | ≤ 0.026
79 | U8A U21A A23C C81U | ≤ 0.026
80 | U8A U21C C34G | ≤ 0.026
81 | U8A U22G G65U G66A | ≤ 0.026
82 | U8A U22G G67C G78U | ≤ 0.026
83 | U8A U35G A54C A74G C83U G86A | ≤ 0.026

From the RNAGym collection of RNA variant scans (doi:10.1101/gad.245936.114)
